Measurements as given in PubChem BioAssay AID1645882 (National Center for Advancing Translational Sciences (NCATS), 2021).
Out of some 16,000 compounds screened, about 120 (0.75%) were called active. Another 4% or so got no clear call; they are omitted. Calls follow the shape of the dose curve; as a rule, active = well fitted inhibition curve with a large enough effect; inconclusive = small, poorly fitted or top-dose-only effect; inactive = no such curve, though single readings can be large or run the other way. The list shows a part of the results.

biological target: Rap guanine nucleotide exchange factor 3 (Homo sapiens) (UniProt O95398); experiment: Validation qHTS for antagonist of cAMP-regulated guanine nucleotide exchange factor 3 (EPAC1); conditions: EPAC1 Rap1B-BODIPY-GDP exchange, fluorescence; series mostly up to 150 µM; activity change, negative = inhibition: at the top concentration;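 also: plate controls were DMSO for no effect and ATA control for full effect; nearly all actives have a fitted effect of over 75% in size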
Sequence of UniProt O95398 (O95398 whole entry, looked up): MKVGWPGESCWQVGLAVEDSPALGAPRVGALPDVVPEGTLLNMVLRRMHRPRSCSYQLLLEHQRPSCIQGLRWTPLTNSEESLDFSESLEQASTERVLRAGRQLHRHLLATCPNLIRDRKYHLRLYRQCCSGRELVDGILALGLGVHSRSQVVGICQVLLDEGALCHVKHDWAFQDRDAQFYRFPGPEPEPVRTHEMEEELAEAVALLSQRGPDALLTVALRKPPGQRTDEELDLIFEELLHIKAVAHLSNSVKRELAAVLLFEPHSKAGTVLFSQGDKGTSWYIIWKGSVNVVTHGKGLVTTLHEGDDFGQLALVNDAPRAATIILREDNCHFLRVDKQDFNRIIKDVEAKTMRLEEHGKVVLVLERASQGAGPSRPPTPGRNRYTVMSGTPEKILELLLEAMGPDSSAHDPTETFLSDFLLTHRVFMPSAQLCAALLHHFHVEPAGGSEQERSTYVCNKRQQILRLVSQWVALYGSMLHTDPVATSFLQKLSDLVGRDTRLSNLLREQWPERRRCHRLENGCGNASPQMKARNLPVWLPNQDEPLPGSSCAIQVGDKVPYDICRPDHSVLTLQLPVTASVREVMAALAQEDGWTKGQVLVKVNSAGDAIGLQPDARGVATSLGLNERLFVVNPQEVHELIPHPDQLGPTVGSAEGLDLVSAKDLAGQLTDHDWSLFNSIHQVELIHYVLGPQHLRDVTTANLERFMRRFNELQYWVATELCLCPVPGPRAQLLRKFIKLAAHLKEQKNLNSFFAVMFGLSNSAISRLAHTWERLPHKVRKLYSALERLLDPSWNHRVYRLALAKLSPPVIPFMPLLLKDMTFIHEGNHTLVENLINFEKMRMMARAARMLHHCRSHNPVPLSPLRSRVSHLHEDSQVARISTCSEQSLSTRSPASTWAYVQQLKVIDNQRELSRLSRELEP
Outline: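 Nucleotide exchange followed as fluorescence loss when BODIPY-GDP leaves Rap1B (480 nm excitation, 540 nm emission), read at 5 min intervals over 30 min. Reaction: 100 nM EPAC1, 250 nM RAP1B-BODIPY-GDP, 50 uM GDP; ATA and DMSO define normalization.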

Activity change, negative = inhibition, inactive:
O=C(Cn1cnnn1)N[C@@H]1C(=O)N2C(C(=O)O)=C(CSc3nncs3)CS[C@H]12
Cc1ccsc1C1Cc2c(C(=O)NCc3cccnc3)c(=O)cc(C)n2-c2ccccc2S1 (configuration not stated) 25.3%
CN1CCN(c2cc(-c3ccccc3C(F)(F)F)ncn2)CC1 13.4%
CC(=O)NCCNc1nc(-c2ccccc2Cl)nc2ccccc12 9.81%
CC(C)NC(=O)N1CCCC2(CCN(C(=O)c3cccc(F)c3)CC2)C1 21%
COCCn1c(=O)c(-c2ccccc2)nc2cncnc21 0.267%
COc1ccccc1C1CN(Cc2cnn(C)c2C)Cc2ccccc2O1 (configuration not stated) 15.7%
CSC(N)=NCCC[C@H](N)C(=O)O 14.2% [at 75.8 µM]
COc1ccc(-n2c(=O)c(-c3cccs3)nc3cnc(OC)nc32)cc1 16.2%
Cc1cccc(CNc2ncnc3ccc(-c4cccc(C#N)c4)cc23)c1 29%
C[C@H]1CCC(=O)N([C@H](CSc2ccc(Br)cc2)Cc2ccccc2)CC1 -3.46%
COC(=O)c1ccccc1-c1cc(C)cc2c1OC(CNC(=O)c1ccn(C)n1)C2 (configuration not stated) 17.4%
CN1CCC(=C2c3ccccc3CCc3sccc32)CC1
Cc1cnc(CNc2ncnc3ccc(-c4ccccc4Cl)cc23)cn1 2.92%
N=c1ccn2c(n1)OCC1C2O[C@@H](O)[C@H]1O (some centres not stated) 5.06%
COc1cccc(CNC(=O)c2c(OC)cc(=O)n3c2CCN(C(=O)c2ccccc2Cl)CC3)c1 12.9%
OCC(O)CS (configuration not stated) 11.9%
COCC(=O)N1CCC2(CC1)CN(c1ccc(-c3ccccc3)cc1)C2 1.54%
Cc1cccc(C)c1OCC(N)C(C)C (configuration not stated) -7.91% [at 75.8 µM]
CSc1ncccc1C(=O)NCC1Cc2cc(-c3cnccn3)cc(Cl)c2O1 (configuration not stated) -3.86%
C[C@H](CSC(=O)c1ccccc1)C(=O)N1C[C@@H](Sc2ccccc2)C[C@H]1C(=O)O 24.6%
CN1CCOC(c2ccccc2)c2ccccc2C1 (configuration not stated)
COc1cc2nc(N3CCCC(O)C3)c(CNCc3ccccc3F)cc2c(OC)c1OC (configuration not stated) 3.12%
CN(C)C(=O)OC1=C(c2ccccc2)Sc2ccccc2-n2cccc21 -8.09%
O=C(Oc1ccccc1)N1CCC2(CCCN(c3cccc(-c4ccccc4)c3)C2)CC1 2.53%
COc1ccc(C(=O)N2CCC3(CC2)CN(c2ncccn2)C3)cc1 1.47%
CC(C)C[C@H]1C(=O)N2CCC[C@H]2[C@]2(O)O[C@](NC(=O)[C@@H]3C=C4c5cccc6[nH]c(Br)c(c56)C[C@H]4N(C)C3)(C(C)C)C(=O)N12
COc1ccc2[nH]cc(CCNc3cc(-c4ccc5c(c4)OCO5)ncn3)c2c1 3.19%
NCCNS(=O)(=O)c1cccc2c(Cl)cccc12
COCCn1c(=O)c(CCc2ccccc2)nc2cnc(Nc3cccc(OC)c3)nc21 2.27%
Nc1ncnc2c1ncn2[C@@H]1O[C@H](COP(=O)(O)CP(=O)(O)OP(=O)(O)O)[C@@H](O)[C@H]1O
COC(=O)C1=C(C)NC(C)=C([N+](=O)[O-])[C@@H]1c1ccccc1C(F)(F)F -11.3%
Cc1c(I)c(=O)n(-c2ccccc2)n1C 22%
Cc1ccccc1C(OCCN(C)C)c1ccccc1 (configuration not stated)
CCC1CN(CC(=O)NCc2cc(C)n(C)n2)Cc2cc(OC)ccc2O1 (configuration not stated) 9.43%
O=C(c1cccc(F)c1)N1CCC2(CCN(Cc3ccncc3)CC2)CC1 -3.12%
O=C(c1csnn1)N1CCC2(CC1)CCN(c1ccccn1)CC2 20.3%
CCCCC#Cc1nc(NC)c2ncn([C@@H]3O[C@@H](CO)[C@H](O)[C@H]3O)c2n1 2.98%
Cn1cccc1C(=O)N1CCC2(CCCN(C(=O)Nc3ccccc3)C2)CC1 15.8%
OC1(c2ccc3c(c2)CN(Cc2ccco2)CCO3)CCN(c2ccccc2F)CC1 -0.132%
CO[C@H]1[C@H](NC(=O)c2ccsc2)c2ccccc2C12CCN(Cc1cccc3ncccc13)CC2 14.9%
O=C(NCC1Cc2cccc(-c3cnccn3)c2O1)c1ccc2c(c1)OCCO2 (configuration not stated) -2.15%
NCCCC(N)(C(=O)O)C(F)F (configuration not stated)
Cc1c(C(=O)NCCN2CCOCC2)cnn1-c1nccc(-c2cc3ccccc3o2)n1 26.5%
COc1cccc(-c2ccnc(-n3ncc(C(=O)NCC4(N5CCCCC5)CCCC4)c3C)n2)c1 15.2%
Cc1ccc2c(c1)CN(CCNC(=O)c1cc3ccccc3oc1=O)CC(C)O2 (configuration not stated) -2.23%
O=C(Nc1ccc([N+](=O)[O-])cc1)Nc1ccc([N+](=O)[O-])cc1 9.73%
CCCN1CCC(=O)N([C@H](CO)c2ccccc2)CC1 13.2%
CCCCCCCCCCCC1=C(O)C(=O)C=C(O)C1=O
CC(=O)Nc1ccc(OCCOCCOc2ccc(NC(C)=O)cc2)cc1 8.8%
N#CCCn1c(=O)c(-c2ccccc2)nc2cnc(Oc3cccc(Cl)c3)nc21 9.7%
COC(=O)N1CCC2(CCCN(C(=O)Nc3cccc(F)c3)C2)CC1 17.5%
COc1c2ccoc2cc2oc(=O)ccc12
COc1cc(-c2c(-c3ccc4c(c3)OCO4)noc2-c2ccsc2)ccc1F 4.4%
CNc1ncncc1-c1ccccc1OC 25.9%
O=C(c1ccco1)N1CCC2(CC1)CN(c1ccccc1)C2 6.04%
COC(=O)c1ccccc1-c1cc(C)cc2c1OC(CNC(=O)c1cc(C)on1)C2 (configuration not stated) -2.93%
CC(C)(C)CC(C)(C)N=C1Nc2ccccc2NC12C[C@H]1CCC(=O)N3CC[C@@H](C2)[C@@H]13 (some centres not stated) -14.6%
Cc1noc(C)c1C(=O)N1CCC2(CC1)CCN(c1ccccn1)CC2 21.3%
O=C1CCc2ccc(OCCCCN3CCN(c4cccc(Cl)c4Cl)CC3)cc2N1 18.3%
COc1ccccc1C1CN(Cc2cccn2-c2ncccn2)Cc2ccccc2O1 (configuration not stated) -9.8%
CCCCCCCCCCCCCCCC(=O)C(F)(F)F -7.81%
Cc1cnc(SCc2ccccn2)nc1C1CCCN(C(=O)c2ccc3c(c2)OCO3)C1 (configuration not stated) 2.88%
CN(C)CCOC(c1ccc(Cl)cc1)c1ccccn1 (configuration not stated)
COc1ccc(NC(=O)N2CCC3(CC2)CCN(S(=O)(=O)c2ccccc2)CC3)cc1 19.3%
NC(=O)NC1NC(=O)NC1=O (configuration not stated)
COc1cc(Cl)c(C)cc1N1C(=O)[C@@H]2C[C@H]1CN2Cc1ccccn1 10.5%
O=C(c1ccco1)N1CCC[C@@]2(CCN(Cc3nccs3)C2)C1 16%
COc1cc(-c2cc(C)c3c(OC)ccc(OC)c3n2)cc2c1OCCN(C(=O)CCn1ccc(C)n1)C2 10.9%
Nc1c(Br)cc(C=O)cc1Br 7.72%
COc1cc2c(cc1O)C(Cc1ccc(O)cc1)[N+](C)(C)CC2 (configuration not stated) 7.24%
O=c1cc(-c2ccc(O)cc2)oc2cc(O)ccc12 -2.75%
N[C@H](CCC(=O)NCC(=O)O)C(=O)O -15.4%
O=C(c1csnn1)N1CCC[C@@]2(CCN(c3ncccn3)C2)C1 16.4%
CCCN=C(N)NCCC[C@H](N)C(=O)O 15.5%
CCCCN(CCC(=O)O)c1ccc(/C=C/c2ccnc3ccccc23)cc1 17.7%
CN1CCN(c2ncc3nc(-c4ccccc4)c(=O)n(C4CC4)c3n2)CC1 -9.34%
COC(=O)C1=C(C)NC(C)=C(C(=O)OCC(C)C)C1c1ccccc1[N+](=O)[O-] (configuration not stated) -24.2%
CC1(C)CCC(C)(C)c2cc(C(=O)Nc3ccc(C(=O)O)cc3)ccc21 15.7%
CCOC(=O)N(C(=O)c1ccccc1)c1ccccc1 3.78%
COc1ccc(C(=O)Nc2ccccc2CCC2CCCCN2C)cc1 (configuration not stated) 30.4%
CN(C)c1ccc(-c2nccc(NCc3ccccc3)n2)cc1 9.7%
COc1cccc(CN2C(=O)NC(C)(C3CCN(Cc4cc(Cl)ccc4O)CC3)C2=O)c1OC (configuration not stated) -2.44%
COc1ccccc1CNc1cc(-c2ccccc2OC)ncn1 8.72%
CN(C)c1ccc(-c2nc(NCCN3CCOCC3)c3ccccc3n2)cc1 10.6%
CC(=O)N1CCN(C)CC1
CNc1c2c(nn1C)CCCC2 8.58%
CN1CCN(c2c(F)cc3c(=O)c(C(=O)O)cn4c3c2SCC4)CC1 5.27%
COC(=O)[C@H]1[C@H]2C[C@@H]3c4[nH]c5cc(OC)ccc5c4CCN3C[C@H]2C[C@@H](OC(=O)/C=C/c2cc(OC)c(OC)c(OC)c2)[C@@H]1OC
NCCCC[C@H](NC(=O)[C@@H]1CCCN1C(=O)[C@@H]1CSSC[C@H](N)C(=O)N[C@@H](Cc2ccc(O)cc2)C(=O)N[C@@H](Cc2ccccc2)C(=O)N[C@@H](CCC(N)=O)C(=O)N[C@@H](CC(N)=O)C(=O)N1)C(=O)NCC(N)=O
N#Cc1cccc(-c2nccc(NCc3ccccc3)n2)c1 -19.7%
N#CCCn1c(=O)c(-c2ccc(F)cc2)nc2cnc(N3CCOCC3)nc21 17.8%
CCC(C)[C@H]1COCCS(=O)(=O)N1Cc1ccc(Br)cc1 (some centres not stated) -19.4%
COC(=O)C1=C(C)NC(C)=C(C(=O)OCCN(C)Cc2ccccc2)C1c1cccc([N+](=O)[O-])c1 (configuration not stated)
COc1ccc(-n2c(CNC(=O)c3cccc4ccccc34)nnc2SC)cc1 1.11%
Oc1cc(-c2nc3ccccc3s2)cc2c1OCCN(Cc1cccn1-c1ncccn1)C2 -17.4%
CCCCN1CC[C@H]2C=CC[C@@H](C(=O)NCc3cccnc3)[C@H]2C1=O 7.66%
N#Cc1ccccc1-c1nc(NCCN2CCOCC2)c2ccccc2n1 10.7%
Cc1ccccc1CNc1ncnc2c1ncn2[C@@H]1O[C@H](CO)[C@@H](O)[C@H]1O 15.3%
O=C(c1cnccn1)N1CCC2(CCN(Cc3ccncc3)CC2)CC1 20.9%
Cc1noc(C)c1C(=O)N1CCC2(CCCN(c3ccccc3)C2)CC1 12.6%
COC(=O)N1CCC[C@@]2(CCN(C(=O)Nc3cccc(C#N)c3)C2)C1 4.61%
